In patent US9045526B2 (THE REGENTS OF THE UNIVERSITY OF MICHIGAN, priority 2011, dated 2015):
Numbered stars: 1 amine (or outer) side, 2 acyl side, 3 side chain; on linkers, the order of the positions; unused ones are H or OH. Bridge positions count the residues as written; N and C are the ends. Square brackets hold non-standard residues; d marks the D form. Peptide text beside a SMILES is read from it. Dmt = Cc1cc(O)cc(C)c1C[C@H](N)C(=O)O; dPen = CC(C)(S)[C@@H](N)C(=O)O; Aic = NC1(C(=O)O)Cc2ccccc2C1; CH2CH2 = C(C[*:2])[*:1]

Tests used:
mu-opioid receptor (MOR) = target: T1, mu-opioid receptor (MOR) (Rattus norvegicus, UniProt P33535); test: Ki, nM | (MOR)
T1 construct: expressed in transfected cells; host or cells: C6 rat glioma cells (C6-MOR), stably transfected
T1 sequence (P33535 whole entry, looked up): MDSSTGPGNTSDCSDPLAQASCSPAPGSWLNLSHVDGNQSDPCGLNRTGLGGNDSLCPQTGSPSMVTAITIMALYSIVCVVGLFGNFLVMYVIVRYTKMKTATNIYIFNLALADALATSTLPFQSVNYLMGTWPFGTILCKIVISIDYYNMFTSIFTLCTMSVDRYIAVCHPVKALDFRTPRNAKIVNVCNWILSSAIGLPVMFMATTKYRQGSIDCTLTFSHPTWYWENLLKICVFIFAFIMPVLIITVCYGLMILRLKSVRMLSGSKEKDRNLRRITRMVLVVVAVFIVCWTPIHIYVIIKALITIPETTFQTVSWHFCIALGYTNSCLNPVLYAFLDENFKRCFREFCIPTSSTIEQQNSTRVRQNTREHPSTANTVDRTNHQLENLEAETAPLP
From the text: (§1) Table printed on a drawing sheet, FIGURE 4
Head of the field: Ki, nM | (MOR)
(§2) First copying reader's note: Each result cell holds the value together with its ± error.

[1] = target: T2, kappa-opioid receptor (KOR) (Homo sapiens, UniProt P41145); test: Ki, nM | (KOR)
T2 construct: expressed in transfected cells
T2 sequence (P41145 whole entry, looked up): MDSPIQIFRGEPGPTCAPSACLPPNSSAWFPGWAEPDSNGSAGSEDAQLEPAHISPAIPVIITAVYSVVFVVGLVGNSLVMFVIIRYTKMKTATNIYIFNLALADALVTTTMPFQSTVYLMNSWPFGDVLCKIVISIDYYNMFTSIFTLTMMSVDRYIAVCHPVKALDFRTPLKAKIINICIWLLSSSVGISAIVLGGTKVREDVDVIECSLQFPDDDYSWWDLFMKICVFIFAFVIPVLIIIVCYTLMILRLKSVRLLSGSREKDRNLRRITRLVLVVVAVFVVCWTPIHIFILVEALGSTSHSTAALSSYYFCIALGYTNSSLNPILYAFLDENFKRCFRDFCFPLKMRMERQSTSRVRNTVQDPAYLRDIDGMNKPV
From the text: as §1
Head of the field: Ki, nM | (KOR)
as §2

[2] = target: T3, delta-opioid receptor (DOR) (Rattus norvegicus, UniProt P33533); test: Ki, nM | (DOR)
T3 construct: expressed in transfected cells; host or cells: C6 rat glioma cells (C6-DOR), stably transfected
T3 sequence (P33533 whole entry, looked up): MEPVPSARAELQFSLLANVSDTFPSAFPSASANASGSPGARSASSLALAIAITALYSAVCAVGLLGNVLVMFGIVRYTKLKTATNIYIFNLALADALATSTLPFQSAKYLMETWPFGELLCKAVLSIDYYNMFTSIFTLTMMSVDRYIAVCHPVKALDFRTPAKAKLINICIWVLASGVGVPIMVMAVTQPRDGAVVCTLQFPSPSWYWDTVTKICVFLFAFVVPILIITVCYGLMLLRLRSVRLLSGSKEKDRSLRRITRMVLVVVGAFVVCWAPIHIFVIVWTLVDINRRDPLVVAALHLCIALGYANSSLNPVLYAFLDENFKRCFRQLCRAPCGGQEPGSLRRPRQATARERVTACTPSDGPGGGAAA
From the text: as §1
Head of the field: Ki, nM | (DOR)
as §2

DOR = DOR (Rattus norvegicus, UniProt P33533); test: DOR | % max.; conditions: 10 µM
DOR, sequence (P33533 whole entry, looked up): as above

KOR = KOR (Homo sapiens, UniProt P41145); test: KOR | % max.; conditions: 10 µM
KOR, sequence (P41145 whole entry, looked up): as the sequence (P41145 whole entry, looked up) above

SMILES	Ki (mu-opioid receptor (MOR))	Ki [1]	Ki [2]	DOR | % max. (DOR)	KOR | % max. (KOR)
Cc1cc(O)cc(C)c1C[C@H](N)C(=O)N[C@@H]1CSCCSC(C)(C)[C@H](C(=O)N[C@H](C(=O)O)[C@@H](C)O)NC(=O)C2(Cc3ccccc3C2)NC1=O [VRP-15] (H-[Dmt][dC][Aic][dPen]T-OH; linker 2-4 via CH2CH2; N-terminus assumed)	18 ± 3.9 nM	32700 ± 9800 nM	6.3 ± 1.2 nM	–	–
Cc1cc(O)cc(C)c1C[C@H](N)C(=O)N[C@@H]1CSCCSC(C)(C)[C@H](C(=O)N[C@@H](CO)C(N)=O)NC(=O)C2(Cc3ccccc3C2)NC1=O [VRP-19] (H-[Dmt][dC][Aic][dPen]S-NH2; linker 2-4 via CH2CH2)	1.7 ± 0.8 nM	174 ± 13.7 nM	2.7 ± 0.8 nM	–	–
Cc1cc(O)cc(C)c1C[C@H](N)C(=O)N[C@@H]1CSCCSC(C)(C)[C@H](C(=O)N[C@H](C(N)=O)[C@@H](C)O)NC(=O)C2(Cc3ccccc3C2)NC1=O [VRP-21] (H-[Dmt][dC][Aic][dPen]T-NH2; linker 2-4 via CH2CH2; N-terminus assumed)	1.9 ± 0.3 nM	–	2.7 ± 0.3 nM	–	–
Cc1cc(O)cc(C)c1C[C@H](N)C(=O)N[C@@H]1CSCCSC(C)(C)[C@H](C(N)=O)NC(=O)C2(Cc3ccccc3C2)NC1=O [compound 1, Dmt-c(S-CH2-CH2-S)-[D-Cys-Aci-D-Pen]NH2] (H-[Dmt][dC][Aic][dPen]-NH2; linker 2-4 via CH2CH2; N-terminus assumed)	–	–	–	37 ± 4 % max.	3 ± 3 % max.
Cc1cc(O)cc(C)c1C[C@H](N)C(=O)N[C@@H]1CSCCSC(C)(C)[C@H](C(=O)O)NC(=O)C2(Cc3ccccc3C2)NC1=O [compound 2, Dmt-c(S-CH2-CH2-S)-[D-Cys-Aci-D-Pen]OH] (H-[Dmt][dC][Aic][dPen]-OH; linker 2-4 via CH2CH2; N-terminus assumed)	–	–	–	0 % max.	0 % max.
